Data: PubChem BioAssay AID624296 (National Center for Advancing Translational Sciences (NCATS), 2012)
Hit rate of the full screen: of about 350,000 compounds, about 9,900 (2.8%) were called active. The inconclusive results got no clear call from the source; some entries with a clear call stand among them for comparison. The call rests on the fitted dose curve; in most records, active means well fitted activation curve with a large enough effect; inconclusive means small, poorly fitted or top-dose-only effect; inactive means no such curve, though single readings can be large or run the other way. No potency is given beside an inconclusive call; the fits are too rough.

Test: A quantitative high throughput screen for small molecules that induce DNA re-replication in MCF 10a normal breast cells. Further: nearly all actives have a fitted effect of over 50% in size. On activity, positive = re-replication: % of control where 0% means no effect.
Conditions: MCF 10A DNA re-replication, Hoechst nuclear intensity, 48 h; activity, positive = re-replication: at 46.1 µM (top of the series)
Potency means the concentration at half of the fitted maximal effect; tags describe the fitted curve by direction and shape.

Question: Which Potency does the source give for C[C@@H]1CC=C[C@H]2[C@H]1C(=O)N(Cc1ccccc1)[C@H]2c1ccc(-c2ccc(N(C)C)cc2)cc1F here?
Answer: inconclusive [activator, full curve, poor fit]

Question: For COc1ccc(C(=O)OCC(=O)c2cc(C)n(CC3CCCO3)c2C)cc1[N+](=O)[O-] (stereo not given), which Potency is on record?
Answer: inconclusive [activator, partial curve, poor fit]

Question: With Fc1ccc(-c2ccc(-c3nn4c(-c5ccco5)nnc4s3)o2)cc1 as the compound, how does the Potency read?
Answer: inconclusive [activator, single point]

Question: Which Potency does the source give for COc1ccc2ccc3c(c2c1)N=C[C@]1(O3)N(C)c2ccccc2C1(C)C here?
Answer: active: 18.4 µM

Question: With CCCCc1ccc(NC(=O)COc2ccc(C(=O)Nc3ccccc3OCC)cc2)cc1 as the compound, how does the Potency read?
Answer: inconclusive [activator, single point]

Question: With CSc1ccccc1-c1nnc(-c2ccccc2)o1 as the compound, how does the “activity, positive = re-replication” value read?
Answer: inactive: -23%

Question: With CC(=O)Nc1ccc(S(=O)(=O)N2c3ccccc3NC(=O)CC2C)c(Cl)c1 (stereo not given) as the compound, how does the Potency read?
Answer: inconclusive [activator, partial curve, poor fit]

Question: With CC(CCc1ccccc1)NC(=O)c1ccc(Br)cc1 (stereo not given) as the compound, how does the Potency read?
Answer: inconclusive [activator, partial curve, poor fit]

Question: Which Potency does the source give for Cc1ccc(-c2csc(NC(=O)C3=NN(c4ccccc4)C(=O)CC3)n2)cc1 here?
Answer: inconclusive [activator, single point]

Question: Which “activity, positive = re-replication” value does the source give for COc1ccccc1CCNC(=O)C(=O)NCC1OCCCN1S(=O)(=O)c1cc(C)ccc1C (stereo not given) here?
Answer: inactive: 11%

Question: For COc1ccc(/C=N/NC(=O)C2C(C=C(Cl)Cl)C2(C)C)c(OC)c1 (stereo not given), which Potency is on record?
Answer: inconclusive [activator, partial curve, poor fit]

Question: For CC1CCC(NC(=O)c2ccc(NS(=O)(=O)c3ccc4[nH]c(=O)[nH]c4c3)cc2)CC1 (stereo not given), which Potency is on record?
Answer: inconclusive [activator, partial curve, poor fit]

Question: For Cc1cc(C)cc(NC(=O)CNC(c2ccccc2)c2ccccc2)c1, which Potency is on record?
Answer: inconclusive [activator, partial curve, poor fit]

Question: For CCN(Cc1ccccc1)C1CCN(Cc2ccc(SC)cc2)CC1, which Potency is on record?
Answer: inconclusive [activator, single point]

Question: Which Potency does the source give for CCCOc1ccccc1C1CC(=O)NC2=C1C(=O)CCC2 (stereo not given) here?
Answer: active: 10.3 µM

Question: With Cc1occc1-c1nnc(SCC(=O)NCc2cccs2)n1-c1ccc(F)cc1 as the compound, how does the Potency read?
Answer: inconclusive [activator, partial curve, poor fit]

Question: With O=c1[nH]c(CSc2nc3ccccc3s2)nc2ccccc12 as the compound, how does the Potency read?
Answer: inconclusive [activator, single point]

Question: With O=C(c1cccs1)N(c1cccc(Cl)c1)C1C=CS(=O)(=O)C1 (stereo not given) as the compound, how does the “activity, positive = re-replication” value read?
Answer: inactive: 5.79%

Question: For N=c1c2c(-c3ccccc3)c(-c3ccccc3)n(Cc3ccco3)c2ncn1CCCN1CCOCC1, which Potency is on record?
Answer: inconclusive [activator, single point]

Question: Which “activity, positive = re-replication” value does the source give for CCn1c(CCNC(=O)c2ccco2)nc2ccccc21 here?
Answer: inactive: 1.98%

Question: For O=C1[C@H]2C(c3ccccc3)=NN(c3ccccc3)[C@H]2C(=O)N1c1ccccc1, which Potency is on record?
Answer: active: 0.651 µM

Question: With O=c1cc(CSc2ccc(Cl)cc2)nc(-c2ccccn2)[nH]1 as the compound, how does the Potency read?
Answer: inconclusive [activator, single point]

Question: Which Potency does the source give for COc1ccc(OC)c(/C=C2\SC(=S)N(NS(=O)(=O)c3ccc(C)cc3)C2=O)c1 here?
Answer: inconclusive [activator, single point]

Question: With COc1ccc(OCc2n(CC(=O)OC3CC(C)CCC3C(C)C)c3ccccc3[n+]2C)cc1 (stereo not given) as the compound, how does the Potency read?
Answer: inconclusive [activator, single point]

Question: For C=CCOC(=O)C(C#N)c1nc2ccccc2nc1N1CCN(c2ccccc2OCC)CC1 (stereo not given), which “activity, positive = re-replication” value is on record?
Answer: inactive: 12.6%

Question: With Cc1cc(C)c(C)c(S(=O)(=O)N2CCC(C(=O)N3CCCCCCC3)CC2)c1C as the compound, how does the Potency read?
Answer: inconclusive [activator, single point]

Question: With Cc1nn(CCc2nn[nH]n2)c2nc(-c3ccc(C4CCCCC4)cc3)cc(C(F)(F)F)c12 as the compound, how does the Potency read?
Answer: active: 11.6 µM

Question: For CC1CC(C)C(=O)C(C(CC2CC(=O)NC(=O)C2)OC(=O)CC(=O)c2ccccc2)C1 (stereo not given), which Potency is on record?
Answer: inconclusive [activator, full curve, poor fit]

Question: With CCOC(=O)CN1NC2(CCCCCC2)NC1=S as the compound, how does the “activity, positive = re-replication” value read?
Answer: inactive: -1.75%

Question: With CC(=O)Nc1ccc(OC(=O)Cc2ccc(Cl)cc2)cc1 as the compound, how does the “activity, positive = re-replication” value read?
Answer: inactive: -9.74%

Question: For Cc1cc(C)c(NC(=O)CSCc2nc3sc(C)c(C)c3c(=O)[nH]2)c(Cl)c1, which Potency is on record?
Answer: inconclusive [activator, single point]

Question: With COc1ccc(S(=O)(=O)N2CCC(C(=O)NCC(=O)Nc3c(C)cccc3C)CC2)cc1OC as the compound, how does the Potency read?
Answer: inconclusive [activator, partial curve, poor fit]

Question: With O=C(NNC1=Nc2ccccc2SC1)c1cccc([N+](=O)[O-])c1 as the compound, how does the Potency read?
Answer: inconclusive [activator, single point]

Question: With Cc1cc(C)c(C)c(S(=O)(=O)N2CCC(C(=O)NC3=NCCS3)CC2)c1C as the compound, how does the “activity, positive = re-replication” value read?
Answer: inactive: 13.7%

Question: For NC(=S)N/N=C/c1ccc(-c2cc(Cl)cc(Cl)c2)o1, which Potency is on record?
Answer: active: 13 µM

Question: Which Potency does the source give for COc1cccc(/C=C2\SC(=S)N(N3C(=O)CCCC3=O)C2=O)c1 here?
Answer: inconclusive [activator, single point]

Question: With Nn1c(SCc2cccc(Br)c2)nnc1-c1cccnc1 as the compound, how does the Potency read?
Answer: inconclusive [activator, single point]

Question: For Cc1cc2nnc(SCC(=O)N3CCN(c4ccccc4)CC3)n2c(N)n1, which Potency is on record?
Answer: inconclusive [activator, partial curve, poor fit]

Question: Which Potency does the source give for Cn1nc(-c2ccc(Cl)cc2)c2cc(C(=O)N3CCN(c4ccccn4)CC3)sc21 here?
Answer: inconclusive [activator, partial curve, poor fit]

Question: For Cc1onc(-c2ccccc2)c1-c1nnc(CN2CCN(S(=O)(=O)c3ccccc3)CC2)o1, which “activity, positive = re-replication” value is on record?
Answer: inactive: 5.58%

Question: For O=C(Nc1cccc(Cl)c1)Nc1nnc(CSCCOc2ccc(Cl)cc2)s1, which Potency is on record?
Answer: active: 5.17 µM

Question: For CCn1ncc(Br)c1C(=O)Nc1ccccc1C(F)(F)F, which “activity, positive = re-replication” value is on record?
Answer: inactive: -21.8%

Question: Which Potency does the source give for COc1ccc(NC(=O)CCSc2nc(C)cs2)cc1 here?
Answer: inconclusive [activator, partial curve, poor fit]

Question: Which Potency does the source give for Cc1ccccc1NS(=O)(=O)c1ccc(C(=O)N2CCN(c3ccccc3O)CC2)cc1 here?
Answer: inconclusive [activator, single point]

Question: Which Potency does the source give for Cc1ccc2nc(N(CCN(C)C)C(=O)/C=C/c3cccs3)sc2c1 here?
Answer: active: 25.9 µM

Question: With O=C(COC(=O)C1CCN(c2ccc(C(F)(F)F)cn2)CC1)NCc1ccc(F)cc1 as the compound, how does the Potency read?
Answer: inconclusive [activator, partial curve, poor fit]

Question: With O=C(c1cccc(F)c1)N1CCCN(C(=O)c2cccc(F)c2)CC1 as the compound, how does the “activity, positive = re-replication” value read?
Answer: inactive: -5.64%

Question: Which “activity, positive = re-replication” value does the source give for CCOc1ccc(OCC)c(NC(=O)C2CCN(c3ncccn3)CC2)c1 here?
Answer: inactive: -3.49%

Question: With Oc1ccc2ccccc2c1C=Nc1ccccc1 as the compound, how does the Potency read?
Answer: inconclusive [activator, single point]

Question: With CCCNC(=O)OCc1cccnc1Sc1ccc(C)cc1 as the compound, how does the “activity, positive = re-replication” value read?
Answer: inactive: -2.53%

Question: With CCN(CC)CCNC(=O)c1cc2cc3ccc(OC)cc3nc2o1 as the compound, how does the Potency read?
Answer: inconclusive [activator, single point]

Question: For CCCCC(=O)N1CCCC(C(=O)OCC)C1 (stereo not given), which “activity, positive = re-replication” value is on record?
Answer: inactive: -0.494%

Question: Which “activity, positive = re-replication” value does the source give for O=C(NNc1cc(N2CCOCC2)nc(N2CCOCC2)n1)c1ccc(Cl)c(Cl)c1 here?
Answer: inactive: -44.1%

Question: With O=C(Nc1ccccc1)Nc1nnc(CSCc2ccccc2Cl)s1 as the compound, how does the Potency read?
Answer: active: 14.6 µM

Question: With COc1ccc2c(c1)-c1nc(NC(=O)c3cccs3)sc1CC2 as the compound, how does the Potency read?
Answer: inconclusive [activator, single point]

Question: With CC1CCCCN1C(=O)c1ccc(CS(=O)(=O)Cc2ccccc2)cc1 (stereo not given) as the compound, how does the Potency read?
Answer: inconclusive [activator, partial curve, poor fit]

Question: Which Potency does the source give for Cc1ccc2c(c1)CCCN2C(=O)c1c(C)noc1C here?
Answer: inconclusive [activator, partial curve, poor fit]

Question: For CN1CCN(C(=S)c2cn(Cc3cccc(F)c3)c3ccccc23)CC1, which Potency is on record?
Answer: inconclusive [activator, partial curve, poor fit]

Question: For CCOC(=O)Cc1ccc(NC(=O)c2ccccc2Br)cc1, which “activity, positive = re-replication” value is on record?
Answer: inactive: -3.04%

Question: Which Potency does the source give for COc1ccc(-c2nc(N)ncc2-c2ccc(Cl)cc2)c(O)c1 here?
Answer: inconclusive [activator, single point]

Question: Which Potency does the source give for C=CCNc1nc(Cl)nc(Nc2cc(Cl)ccc2OC)n1 here?
Answer: inconclusive [activator, single point]

Question: With C1COCCNCCOCCOCCOCCN1 as the compound, how does the “activity, positive = re-replication” value read?
Answer: inactive: -5.96%

Question: With Cc1ccc(-c2noc(CCC(=O)NCC3CCCO3)n2)cc1 (stereo not given) as the compound, how does the “activity, positive = re-replication” value read?
Answer: inactive: -0.0869%

Question: With Cc1cc(C)nc(N2CCCC(C(=O)NNC(=O)c3ccncc3)C2)n1 (stereo not given) as the compound, how does the Potency read?
Answer: inconclusive [activator, partial curve]

Question: With CCCn1c(C(C)Nc2nc(-c3ccc(C)cc3)cs2)nc2ccccc21 (stereo not given) as the compound, how does the Potency read?
Answer: inconclusive [activator, single point]

Question: For CC(C)(C)c1ccc(C(=O)N2CCC(NC(=O)c3ccccc3)CC2)cc1, which “activity, positive = re-replication” value is on record?
Answer: inactive: 4.3%

Question: With O=C(N/N=C/C=C\c1ccco1)c1ccccn1 as the compound, how does the Potency read?
Answer: inconclusive [activator, single point]

Question: For CN1CCN(CC(=O)Nc2ccc(OC(F)(F)F)cc2)CC1, which Potency is on record?
Answer: inconclusive [activator, partial curve, poor fit]

Question: For COc1ccc(CNC(=S)N/N=C/c2ccncc2)cc1, which Potency is on record?
Answer: inconclusive [activator, partial curve, poor fit]

Question: For C[C@H]1COC(=O)[C@H](Cc2ccc(F)cc2)C/C=C\C[C@@H](CC(=O)N(CCO)Cc2ccccc2)C(=O)N1, which “activity, positive = re-replication” value is on record?
Answer: inactive: 9.55%
